The campaign covered roughly 350,000 compounds. About 9,900 (2.8%) were called active. This list was built around the results that the source calls inconclusive (neither active nor inactive); the mix of calls is not that of the screen. The call rests on the fitted dose curve; in most records, active means well fitted activation curve with a large enough effect; inconclusive means small, poorly fitted or top-dose-only effect; inactive means no such curve, though single readings can be large or run the other way. Potencies of inconclusive entries are left out as doubtful fits.
Test: A quantitative high throughput screen for small molecules that induce DNA re-replication in MCF 10a normal breast cells. Further: nearly all actives have a fitted effect of over 50% in size. On activity, positive = re-replication: % of control where 0% means no effect.
Details: MCF 10A DNA re-replication, Hoechst nuclear intensity, 48 h; activity, positive = re-replication: at 46.1 µM (top of the series)
Potency means the concentration at half of the fitted maximal effect; tags describe the fitted curve by direction and shape.

| Compound | activity, positive = re-replication | Potency |
| --- | --- | --- |
| O=[N+]([O-])/C(Cl)=C(/NCCO)C(Cl)=C(Cl)Cl | inactive: 2.35% |  |
| COc1ccc(/C=C2\SC(=O)N(CCC(=O)N3CCN(C)CC3)C2=O)cc1 |  | inconclusive [activator, full curve, poor fit] |
| O=S(=O)(c1cccc2ccccc12)N1CCC2CC1c1cc(-c3ccc(F)cc3)ccc12 (stereo not drawn) |  | inconclusive [activator, full curve, poor fit] |
| Cc1ccc(C(=C2C3C=CC2C2C(=O)NC(=O)C32)c2ccc(C)cc2)cc1 (stereo not drawn) |  | inconclusive [activator, single point] |
| Cc1ccc(NC(=O)Nc2ccc(Cl)cc2)c(Br)c1 |  | inconclusive [activator, single point] |
| COC1CC2CCC(C)[C@](O)(O2)C(=O)C(=O)N2CCCCC2C(=O)OC(C(C)CC2CCC(O)C(OC)C2)CC(=O)C(C)/C=C(/C)C(O)C(OC)C(=O)C(C)CC(C)C=CC=C/C=C\1C (stereo partly drawn) |  | inconclusive [activator, single point] |
| Cc1cccc(NC(=O)c2ccc(S(=O)(=O)N(C)c3ccccc3)cc2)n1 |  | inconclusive [activator, single point] |
| CCCCCN1CSC(=S)N(Cc2ccccc2)C1 |  | inconclusive [activator, single point] |
| CCOc1cc(/C=C(\C#N)c2[nH]nc(N)c2C#N)ccc1O |  | inconclusive [activator, partial curve, poor fit] |
| COc1ccc(-n2c(C)cc(C(=O)CSc3ccc(NC(C)=O)cc3)c2C)cc1 |  | active: 16.4 µM |
| O=C(NC1CCCCC1)C1CC(=O)N(CCc2ccc(F)cc2)C1 (stereo not drawn) | inactive: 10.4% |  |
| Cc1ccc(SCC2=NN(c3nc(C)cc(C)n3)C(=O)C2)cc1 |  | inconclusive [activator, single point] |
| COc1cc(SC)ccc1C(=O)NCc1ccc(C)cc1 | inactive: -10.1% |  |
| c1ccc(-c2ccc(-c3cnc4n3CCCCC4)cc2)cc1 |  | inconclusive [activator, partial curve, poor fit] |
| COc1ccc(Cl)cc1NC(=S)Nc1cccnc1 | inactive: -1.9% |  |
| Cc1cc(C)cc(N2C(=O)CC(c3ccccc3)CC2=O)c1 | inactive: -5.26% |  |
| CCCCCCn1c(COc2ccccc2F)nnc1SCC(=O)N1c2ccccc2NC(=O)C1(C)C |  | active: 20.6 µM |
| COCCCNC(=S)Nc1ccc(CC(=O)O)cc1 |  | inconclusive [activator, single point] |
| CSC1=C(C#N)C(CC(C)C)C(C(C)=O)=C(C)N1 (stereo not drawn) |  | inconclusive [activator, full curve, poor fit] |
| CCOc1ccccc1OCCCC(=O)Nc1sccc1C(N)=O |  | inconclusive [activator, single point] |
| CCCCCCCCCC(=O)N/N=C(\C)c1cccnc1 |  | inconclusive [activator, partial curve, poor fit] |
| Fc1ccc(Nc2ccnc(Nc3ccc(F)cc3)n2)cc1 |  | inconclusive [activator, single point] |
| COc1cccc(/C=C/C(=O)c2cccc([N+](=O)[O-])c2)c1OC |  | inconclusive [activator, single point] |

| Compound | activity, positive = re-replication | Potency |
| --- | --- | --- |
| CC(=O)N1c2ccc(S(=O)(=O)NCCc3ccccc3)cc2CC1C (stereo not drawn) | inactive: -3.24% |  |
| CC1=C(C)C(C)=C(C#N)C(=C(C#N)C#N)N1 |  | inconclusive [activator, full curve, poor fit] |
| COc1ccc(NC(=O)Nc2cccc(OC)c2)cc1 | inactive: 1.35% |  |
| O=c1[nH]c(CN2CCN(Cc3ccccc3)CC2)nc2scc(-c3ccccc3)c12 | inactive: 2.34% |  |
| O=C(CC12CC3CC(CC(C3)C1)C2)NC(=S)Nc1ccc(CN2CCOCC2)cc1 |  | inconclusive [activator, single point] |
| O=C(N/N=C/C(Cl)=C/c1ccccc1)c1ccco1 | inactive: -5.33% |  |
| COc1cccc(/C=N/c2sc(Cc3ccccc3)c(C)c2C(N)=O)c1O |  | inconclusive [activator, single point] |
| Cc1cc(Oc2cnn(C(C)(C)C)c(=O)c2Cl)cc(C(C)C)c1 |  | inconclusive [activator, single point] |
| NS(=O)(=O)c1cccc(NC(=O)COC(=O)Cn2cnc3ccccc32)c1 | inactive: -1.87% |  |
| CN(c1ccccc1)S(=O)(=O)c1ccc(Cl)c(C(=O)Nc2nc3ccccc3[nH]2)c1 |  | inconclusive [activator, partial curve] |
| COc1ccc(CNC(=O)COc2ccc(S(=O)(=O)N3CCCCC3)cc2Cl)cc1 |  | inconclusive [activator, single point] |
| CCN1CCN(C(=O)c2ccccc2N(Cc2ccccc2)S(C)(=O)=O)CC1 | inactive: 9.81% |  |
| COc1cc(OC)nc(NC(=O)CS(=O)(=O)c2ccccc2)n1 |  | inconclusive [activator, partial curve, poor fit] |
| Cc1nc(C(Cl)(Cl)Cl)nc2[nH]ccc(=O)c12 |  | inconclusive [activator, single point] |
| COc1cc(/C=N/NC(=O)c2ccccn2)ccc1OC(=O)c1ccccc1Br |  | inconclusive [activator, full curve, poor fit] |
| Cc1cc(/C(N)=N/OC(=O)Nc2cccc(C(F)(F)F)c2)no1 |  | inconclusive [activator, single point] |
| Cc1cc(OCC(=O)Nc2ccc(S(=O)(=O)N3CCN(C)CC3)cc2)cc(C)c1Cl |  | inconclusive [activator, full curve, poor fit] |
| O=C(Nc1nnc(-c2ccncc2)o1)c1cccc(N2C(=O)CCC2=O)c1 | inactive: -6.89% |  |
| COCCN(CC(=O)NCC1CCCO1)C(=O)CCC(=O)Nc1ccccn1 (stereo not drawn) |  | inconclusive [activator, single point] |
| O=C(O)c1ccc(/C=N/NC(=O)c2cc(-c3cccs3)nc3ccccc23)cc1 |  | inconclusive [activator, single point] |
| COc1ccccc1NC(=S)NCCc1ccc(Cl)cc1 |  | inconclusive [activator, partial curve, poor fit] |
| O=C(/C=C/c1ccco1)Nc1ccc(Oc2ccc(Cl)cc2)cc1 |  | active: 4.61 µM |
| COc1ccc2c(-c3ccc(OCCN4CCCCC4)cc3)c(-c3ccccc3OC)sc2c1 |  | inconclusive [activator, single point] |

| Compound | activity, positive = re-replication | Potency |
| --- | --- | --- |
| CCCN(S(=O)(=O)c1ccccc1F)S(=O)(=O)c1ccccc1Br |  | active: 20.6 µM |
| O=C1C2C3C=CC(C4CC34)C2C(=O)N1/N=C/c1ccc([N+](=O)[O-])o1 (stereo not drawn) |  | active: 3.26 µM |
| Cc1oc2cc(O)cc(O)c2c(=O)c1-c1ccc2c(c1)OCCCO2 |  | inconclusive [activator, single point] |
| Cc1cc(SCC(=O)NN)c2cc(Br)ccc2n1 |  | active: 9.2 µM |
| CCN1C(=O)/C(=C/c2ccc(OCc3ccc(C(=O)O)cc3)c(Cl)c2)NC1=S |  | inconclusive [activator, single point] |
| COCCNC(=O)CSc1cc(-c2ccccc2)c2ccc(OC)cc2n1 |  | inconclusive [activator, single point] |
| Cc1csc(NC(=O)CSC2=NS(=O)(=O)c3ccccc3N2)n1 |  | inconclusive [activator, partial curve, poor fit] |
| CCN(CC(=O)NC(c1ccccc1)c1ccccc1)Cc1nc2ccccc2c(=O)[nH]1 |  | inconclusive [activator, single point] |
| COc1ccc(C(=O)NN=C2CCCC2)cc1OC | inactive: 0.626% |  |
| C=C(C)CSc1cc(C)c(C#N)c2nc3ccccc3n12 |  | active: 5.8 µM |
| Cn1c(=O)c(C(=O)NNC(=O)c2ccc(Br)cc2)c(O)c2ccccc21 |  | active: 23.1 µM |
| CC(=O)Nc1ccc(S(=O)(=O)N2CCN(c3ccc([N+](=O)[O-])c(NCCN4CCOCC4)c3)CC2)cc1 |  | inconclusive [activator, full curve, poor fit] |
| COc1cccc(N2CCN(c3ccc(S(=O)(=O)N4CCN(C)CC4)cc3[N+](=O)[O-])CC2)c1 |  | inconclusive [activator, partial curve, poor fit] |
| CC(C)(O)C(=O)NNC(=S)Nc1cccc(C(F)(F)F)c1 | inactive: -0.262% |  |
| CCCCN(c1ccccc1)S(=O)(=O)c1ccc2c(c1)CCN2C(=O)CCC(=O)O | inactive: 0.494% |  |
| COc1ccc(N2C(=O)S[C@@H]3CS(=O)(=O)C[C@@H]32)cc1 |  | inconclusive [activator, single point] |
| Cc1ccc(S(=O)(=O)N(C)c2ccc(OC(=O)c3cccs3)cc2)cc1C | inactive: -4.22% |  |
| CCCN(CCC)C(=O)CSc1nc2ccccc2c(=O)n1CC1COc2ccccc2O1 (stereo not drawn) |  | inconclusive [activator, partial curve, poor fit] |
| CCn1c(/C=C/c2ccc(O)cc2)nc2ccccc2c1=O |  | inconclusive [activator, single point] |
| Nc1nc2n(n1)C(=O)CC(c1ccccc1)N2 (stereo not drawn) | inactive: -2.88% |  |
| CCOC(=O)N1CCN(C(=O)C2CCN(C(=O)c3ccccc3C)CC2)CC1 |  | inconclusive [activator, single point] |
| COc1cc(/C=C2\SC(=O)N(CCNC(=O)c3sc4cc(F)ccc4c3Cl)C2=O)cc(OC)c1OC |  | inconclusive [activator, full curve, poor fit] |

— PubChem BioAssay AID624296 (National Center for Advancing Translational Sciences (NCATS), 2012)
